Reference: patent US20180044416A1 (UCB, published 2018)

Biological target: human FcRn with human beta2M on MDCK II clone 15 cells (human, UniProt P55899 24-365; P61769 part only)
Assay: cell-based or functional assay

- Blockade of IgG intracellular uptake EC50: 5.9 µg/mL
- Blockade of IgG recycling EC50: 1 µg/mL
B1: IgG4 Fc IgM tp L309 (wild type IgG4 Fc-multimer) (Fc fusion)
chain: [human IgG4 Fc with S228P (EU numbers) not printed]PTLYNVSLVMSDTAGTCY
